Laboratory results reported in the supplement of paper PMC8728848.
This is one part of the list.

Tests used:
Assay in all cases: glycan array binding signal (z-score within array); higher = stronger binding
Settings in all cases: glycan notation: IUPAC condensed, linker removed
[1] = target: Neu5Ac(a2-3)Gal(b1-4)GlcNAc(b1-3)Gal(b1-4)GlcNAc(b1-3)Gal(b1-4)GlcNAc
Outline: (§1)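 Arrays were curated from the Consortium for Functional Glycomics database, 3228 in total, and kept only where the protein sequence was available. Binding is expressed as a within-array Z-score. This score was averaged across arrays of the same protein sequence at different concentrations or buffers and across linkers, and negative values can be read as non-binding.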

[2] = target: Neu5Ac(a2-3)Gal(b1-4)GlcNAc(b1-3)Gal(b1-4)[Fuc(a1-3)]GlcNAc
Outline: as §1

[3] = target: Neu5Ac(a2-3)Gal(b1-4)GlcNAc(b1-3)GalNAc
Outline: as §1

[4] = target: Neu5Ac(a2-3)Gal(b1-4)GlcNAc(b1-6)[Gal(b1-3)]GalNAc
Outline: as §1

[5] = target: Neu5Ac(a2-3)Gal(b1-4)GlcNAc(b1-6)[Neu5Ac(a2-3)Gal(b1-3)]GalNAc
Outline: as §1

[6] = target: Neu5Ac(a2-3)Gal(b1-4)GlcNAc6S
Outline: as §1

[7] = target: Neu5Ac(a2-3)Gal(b1-4)[Fuc(a1-3)]GlcNAc
Outline: as §1

[8] = target: Neu5Ac(a2-3)Gal(b1-4)[Fuc(a1-3)]GlcNAc(b1-3)Gal
Outline: as §1

[9] = target: Neu5Ac(a2-3)Gal(b1-4)[Fuc(a1-3)]GlcNAc(b1-3)Gal(b1-4)GlcNAc
Outline: as §1

[10] = target: Neu5Ac(a2-3)Gal(b1-4)[Fuc(a1-3)]GlcNAc(b1-3)Gal(b1-4)[Fuc(a1-3)]GlcNAc(b1-3)Gal(b1-4)[Fuc(a1-3)]GlcNAc
Outline: as §1

[11] = target: Neu5Ac(a2-3)Gal(b1-4)[Fuc(a1-3)]GlcNAc(b1-3)GalNAc
Outline: as §1

[12] = target: Neu5Ac(a2-3)Gal(b1-4)[Fuc(a1-3)]GlcNAc(b1-6)[Gal(b1-3)]GalNAc
Outline: as §1

[13] = target: Neu5Ac(a2-3)Gal(b1-4)[Fuc(a1-3)]GlcNAc(b1-6)[Neu5Ac(a2-3)Gal(b1-3)]GalNAc
Outline: as §1

[14] = target: Neu5Ac(a2-3)Gal(b1-4)[Fuc(a1-3)]GlcNAc6S
Outline: as §1

[15] = target: Neu5Ac(a2-3)Gal6S(b1-4)GlcNAc
Outline: as §1

[16] = target: Neu5Ac(a2-3)Gal6S(b1-4)[Fuc(a1-3)]GlcNAc
Outline: as §1

Neu5Ac(a2-3)GalNAc = target: Neu5Ac(a2-3)GalNAc
Outline: as §1

[17] = target: Neu5Ac(a2-3)GalNAc(b1-4)GlcNAc
Outline: as §1

[18] = target: Neu5Ac(a2-3)[GalNAc(b1-4)]Gal(b1-4)Glc
Outline: as §1

[19] = target: Neu5Ac(a2-3)[GalNAc(b1-4)]Gal(b1-4)GlcNAc
Outline: as §1

[20] = target: Neu5Ac(a2-3)[GalNAc(b1-4)]Gal(b1-4)GlcNAc(b1-3)GalNAc
Outline: as §1

[21] = target: Neu5Ac(a2-3)[Neu5Ac(a2-6)]GalNAc
Outline: as §1

Neu5Ac(a2-6)Gal = target: Neu5Ac(a2-6)Gal
Outline: as §1

Neu5Ac(a2-6)Gal(b1-4)Glc = target: Neu5Ac(a2-6)Gal(b1-4)Glc
Outline: as §1

[22] = target: Neu5Ac(a2-6)Gal(b1-4)GlcNAc
Outline: as §1

[23] = target: Neu5Ac(a2-6)Gal(b1-4)GlcNAc(b1-2)Man(a1-3)Man(b1-4)GlcNAc(b1-4)GlcNAc
Outline: as §1

[24] = target: Neu5Ac(a2-6)Gal(b1-4)GlcNAc(b1-2)Man(a1-3)[Gal(b1-4)GlcNAc(b1-2)Man(a1-6)]Man(b1-4)GlcNAc(b1-4)GlcNAc
Outline: as §1

[25] = target: Neu5Ac(a2-6)Gal(b1-4)GlcNAc(b1-2)Man(a1-3)[GlcNAc(b1-2)Man(a1-6)]Man(b1-4)GlcNAc(b1-4)GlcNAc
Outline: as §1

[26] = target: Neu5Ac(a2-6)Gal(b1-4)GlcNAc(b1-2)Man(a1-3)[GlcNAc(b1-2)Man(b1-4)GlcNAc(b1-2)Man(a1-6)]Man(b1-4)GlcNAc(b1-4)GlcNAc
Outline: as §1

[27] = target: Neu5Ac(a2-6)Gal(b1-4)GlcNAc(b1-2)Man(a1-3)[Man(a1-6)]Man(b1-4)GlcNAc(b1-4)GlcNAc
Outline: as §1

[28] = target: Neu5Ac(a2-6)Gal(b1-4)GlcNAc(b1-2)Man(a1-3)[Neu5Ac(a2-6)Gal(b1-4)GlcNAc(b1-2)Man(a1-6)]Man(b1-4)GlcNAc(b1-4)GlcNAc
Outline: as §1

[29] = target: Neu5Ac(a2-6)Gal(b1-4)GlcNAc(b1-2)Man(a1-6)Man(b1-4)GlcNAc(b1-4)GlcNAc
Outline: as §1

[30] = target: Neu5Ac(a2-6)Gal(b1-4)GlcNAc(b1-2)Man(a1-6)[Gal(b1-4)GlcNAc(b1-2)Man(a1-3)]Man(b1-4)GlcNAc(b1-4)GlcNAc
Outline: as §1

[31] = target: Neu5Ac(a2-6)Gal(b1-4)GlcNAc(b1-2)Man(a1-6)[GlcNAc(b1-2)Man(a1-3)]Man(b1-4)GlcNAc(b1-4)GlcNAc
Outline: as §1

[32] = target: Neu5Ac(a2-6)Gal(b1-4)GlcNAc(b1-2)Man(a1-6)[Man(a1-3)]Man(b1-4)GlcNAc(b1-4)GlcNAc
Outline: as §1

[33] = target: Neu5Ac(a2-6)Gal(b1-4)GlcNAc(b1-3)Gal(b1-3)GlcNAc
Outline: as §1

[34] = target: Neu5Ac(a2-6)Gal(b1-4)GlcNAc(b1-3)Gal(b1-4)GlcNAc
Outline: as §1

[35] = target: Neu5Ac(a2-6)Gal(b1-4)GlcNAc(b1-3)Gal(b1-4)GlcNAc(b1-3)Gal(b1-4)GlcNAc
Outline: as §1

[36] = target: Neu5Ac(a2-6)Gal(b1-4)GlcNAc(b1-3)Gal(b1-4)[Fuc(a1-3)]GlcNAc(b1-3)Gal(b1-4)[Fuc(a1-3)]GlcNAc
Outline: as §1

[37] = target: Neu5Ac(a2-6)Gal(b1-4)GlcNAc(b1-3)GalNAc
Outline: as §1

[38] = target: Neu5Ac(a2-6)Gal(b1-4)GlcNAc6S
Outline: as §1

Neu5Ac(a2-6)GalNAc = target: Neu5Ac(a2-6)GalNAc
Outline: as §1

[39] = target: Neu5Ac(a2-6)GalNAc(b1-4)GlcNAc
Outline: as §1

[40] = target: Neu5Ac(a2-6)GlcNAc(b1-4)GlcNAc
Outline: as §1

[41] = target: Neu5Ac(a2-6)GlcNAc(b1-4)GlcNAc(b1-4)GlcNAc
Outline: as §1

B1: CTLY 1 (Homo sapiens), Q6ZS10 (protein)
chain: AITCPEGWLPFEGKCYYFSPSTKSWDEARMFCQENYSHLVIINSFAEHNFVAKAHGSPRVYWLGLNDRAQEGDWRWLDGSPVTLSFWEPEEPNNIHDEDCATMNKGGTWNDLSCYKTTYWICERKGLNDIFEAQKIEWHE
glycan array binding signal (z-score) [1]: -0.245 | glycan array binding signal (z-score) [2]: -0.238 | glycan array binding signal (z-score) [3]: -0.209 | glycan array binding signal (z-score) [4]: -0.231 | glycan array binding signal (z-score) [5]: -0.228 | glycan array binding signal (z-score) [6]: -0.232 | glycan array binding signal (z-score) [7]: -0.215 | glycan array binding signal (z-score) [8]: -0.013 | glycan array binding signal (z-score) [9]: -0.122 | glycan array binding signal (z-score) [10]: 1.04 | glycan array binding signal (z-score) [11]: -0.086 | glycan array binding signal (z-score) [12]: -0.209 | glycan array binding signal (z-score) [13]: -0.209 | glycan array binding signal (z-score) [14]: 0.261 | glycan array binding signal (z-score) [15]: -0.212 | glycan array binding signal (z-score) [16]: -0.201 | glycan array binding signal (z-score) (Neu5Ac(a2-3)GalNAc): -0.244 | glycan array binding signal (z-score) [17]: -0.23 | glycan array binding signal (z-score) [18]: -0.257 | glycan array binding signal (z-score) [19]: -0.245 | glycan array binding signal (z-score) [20]: -0.218 | glycan array binding signal (z-score) [21]: -0.259 | glycan array binding signal (z-score) (Neu5Ac(a2-6)Gal): -0.253 | glycan array binding signal (z-score) (Neu5Ac(a2-6)Gal(b1-4)Glc): -0.23 | glycan array binding signal (z-score) [22]: -0.241 | glycan array binding signal (z-score) [23]: -0.23 | glycan array binding signal (z-score) [24]: -0.253 | glycan array binding signal (z-score) [25]: -0.242 | glycan array binding signal (z-score) [26]: -0.234 | glycan array binding signal (z-score) [27]: -0.239 | glycan array binding signal (z-score) [28]: -0.236 | glycan array binding signal (z-score) [29]: -0.249 | glycan array binding signal (z-score) [30]: -0.234 | glycan array binding signal (z-score) [31]: -0.248 | glycan array binding signal (z-score) [32]: -0.237 | glycan array binding signal (z-score) [33]: -0.245 | glycan array binding signal (z-score) [34]: -0.238 | glycan array binding signal (z-score) [35]: -0.246 | glycan array binding signal (z-score) [36]: 0.105 | glycan array binding signal (z-score) [37]: -0.235 | glycan array binding signal (z-score) [38]: -0.237 | glycan array binding signal (z-score) (Neu5Ac(a2-6)GalNAc): -0.248 | glycan array binding signal (z-score) [39]: -0.25 | glycan array binding signal (z-score) [40]: -0.244 | glycan array binding signal (z-score) [41]: -0.24
